This is an account of results in patent US20240343802A1 (Zymeworks, published 2024).

The target of experiment [1] is T1, CD19 on CD19-expressing Raji B cells (human, UniProt P15391 20-556).
T1 construct: whole, on cells
T1 sequence (looked up): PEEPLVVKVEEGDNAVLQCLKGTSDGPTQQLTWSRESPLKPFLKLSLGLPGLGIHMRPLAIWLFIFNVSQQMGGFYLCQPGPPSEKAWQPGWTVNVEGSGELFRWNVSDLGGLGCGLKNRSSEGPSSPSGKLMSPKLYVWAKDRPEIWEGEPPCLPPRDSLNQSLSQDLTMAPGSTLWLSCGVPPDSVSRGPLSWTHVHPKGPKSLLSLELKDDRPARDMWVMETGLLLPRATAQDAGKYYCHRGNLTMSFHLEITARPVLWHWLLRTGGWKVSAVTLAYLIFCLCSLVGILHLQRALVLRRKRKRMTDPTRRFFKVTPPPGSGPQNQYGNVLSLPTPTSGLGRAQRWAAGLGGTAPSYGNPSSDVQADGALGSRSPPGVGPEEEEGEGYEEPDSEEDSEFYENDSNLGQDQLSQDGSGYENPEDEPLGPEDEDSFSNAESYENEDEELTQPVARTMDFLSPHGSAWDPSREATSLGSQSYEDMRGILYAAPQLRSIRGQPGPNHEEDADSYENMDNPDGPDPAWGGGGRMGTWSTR
Kind of experiment: FACS, Raji cells. For orientation: A flow cytometer gives signals particle by particle.

Experiment [2] addresses T1, CD19 on CD19-expressing Raji B cells. Kind of experiment: whole cell binding by FACS on Raji B cells ('Binding curves anti-CD19'), RFU against concentration (nM, log axis).

B1: v1380, anti-CD19 BiTE (VL-VH) scFv / anti-CD3 BiTE (VH-VL) scFv heterodimeric Fc with L234A_L235A (bispecific antibody)
chain 1: DIQLTQSPASLAVSLGQRATISCKASQSVDYDGDSYLNWYQQIPGQPPKLLIYDASNLVSGIPPRFSGSGSGTDFTLNIHPVEKVDAATYHCQQSTEDPWTFGGGTKLEIKGGGGSGGGGSGGGGSQVQLQQSGAELVRPGSSVKISCKASGYAFSSYWMNWVKQRPGQGLEWIGQIWPGDGDTNYNGKFKGKATLTADESSSTAYMQLSSLASEDSAVYFCARRETTTVGRYYYAMDYWGQGTTVTVSSA[no letters for human IgG1 Fc with changes]
chain 2: not shown
notes: copies: 1 + 1
Consider B1, for which, in experiment [1], the Bmax is 9960 and binding was characterised by a dissociation constant (Kd) of 2.95 nM. Further, the “EC50 (read off the curve)” value in experiment [2] was ~3 nM.

Broadly, the Kd is a measure of binding affinity in units of concentration. High values mean weaker binding, low ones tighter binding. Broadly, the EC50 (read off the curve) is the midpoint of the concentration-response curve. A low value points to an effect from little substance.
